Measured values published in patent USRE39130E1 (Bayer Cropscience K.K., priority 1986, dated 2006).

System: brown planthopper (Nilaparvata lugens) of a strain having resistance to organophosphate chemicals
Assay: Test on planthoppers: brown planthopper (spray on rice plants, kill ratio)
Assay type: in vivo
Details: sprayed rice plants, kill ratio two days later, compared with W-1, W-2 and Q-1

Q: `N#C/N=C1\NCCN1Cc1ccc(Cl)nc1` [Compound 5, 1-(2-chloro-5-pyridylmethyl)-2-cyanoiminoimidazolidine] was tested. Which “efficacy (kill ratio) compared with comparison compounds” value did it give?
A: considerably better efficacy
